Assay results reported in PubChem BioAssay AID463173 (ICCB-Longwood Screening Facility, Harvard Medical School, 2010).
The campaign covered roughly 52,000 compounds. About 1,700 (3.3%) were called active. Cut-off read from the data, not from the text of the source: active = survival mostly below about 52% (no sharp cut-off); inactive = mostly above about 56%. The list shows a part of the results.

The compounds below were run on Wild type (assay: growth inhibition of S. aureus wild type versus tarO mutant, primary screen, teichoic acid synthesis inhibitors, RN4220, OD600 (AID 463173)). Conditions: S. aureus RN4220 wild type/DeltatarO growth, OD600, 18 h, hits give low values, screened at 18.75 µg/mL (by protocol).

| SMILES | survival |
| --- | --- |
| COc1ccc2c(c1)c1c(c(=O)n(CCc3ccccc3)c(=O)n1Cc1ccc(F)cc1)n2C | active: 1% |
| CCN(CC)CCCNC(=O)c1nn(C)c2c1CS(=O)(=O)c1ccccc1-2 | inactive: 84% |
| Cc1ccccc1Cn1c(CN2CCC(C(=O)NCCc3ccccc3)CC2)cc2ccccc21 | inactive: 110% |
| CCC(=O)Nc1cccc(C(=O)OCc2cc(=O)n3nc(CC)sc3n2)c1 | inactive: 72% |
| CCSC1=NC2(CCN(C(=O)NC3CCCCC3)CC2)N=C1c1ccc(Cl)cc1 | inactive: 97% |
| CCn1c(O)c(/C=C/c2nc3ccccc3n2CC)sc1=S | inactive: 108% |
| O=c1[nH]cnc2c1[nH]c1ccccc12 | inactive: 106% |
| Cc1ccc(NC(=O)c2sc3nc4c(cc3c2N)CN(Cc2ccccc2)CC4)cc1 | inactive: 93% |
| Nc1ccc(N2CCCC2)cc1 | inactive: 115% |
| CCN1C(=O)c2ccccc2Sc2ccc(NC(=O)c3ccc(Cl)cc3)cc21 | inactive: 89% |
| Cc1oc2ncn(C)c(=O)c2c1C(=O)N1CCN(c2ccccc2F)CC1 | inactive: 86% |
| CCc1nn(Cc2ccc(Cl)cc2)c(=O)c2cc3cc(C)ccc3n12 | inactive: 86% |
| Cc1cc(C)nc(NC(C)(C)C(=O)O)n1 | inactive: 104% |
| CCc1cc2c(NCCN3CCCCC3)ncnc2s1 | inactive: 106% |
| O=C(CSc1ncc2c(n1)-c1ccc(Cl)cc1N(Cc1ccccc1)S2(=O)=O)Nc1ccc(F)c(F)c1 | inactive: 129% |
| COc1ccc2c(Sc3ccccc3)c(C(=O)NCCc3ccc(Cl)cc3)[nH]c2c1 | inactive: 117% |
| O=C(CN1C(=O)COc2ccc(S(=O)(=O)N3CCCC3)cc21)N1CCN(c2ccccc2)CC1 | inactive: 89% |
| CCN1CCN(CCCNC(=O)c2cc3c(s2)-c2ccccc2OC3)CC1 | inactive: 84% |
| COc1cc(OC)cc(C(=O)Nc2cc(-c3nc4cc(Cl)ccc4o3)ccc2Cl)c1 | inactive: 67% |
| CCOC(=O)C1CCCN(CC(=O)N2CCCc3c2c(=O)oc2ccc(OCc4ccccc4)cc32)C1 (stereo not given) | inactive: 103% |
| Cc1cccc2cc(CN(CCO)S(=O)(=O)c3ccc(Cl)cc3)c(=O)[nH]c12 | inactive: 112% |
| CCc1ccc(NC(=O)c2sc3ncnc(N(C)C4CCCCC4)c3c2C)cc1 | inactive: 95% |
| O=C(NCc1ccc2c(c1)CCN2C(=O)c1ccccc1)c1cc2ccccc2[nH]1 | active: 1% |

| SMILES | survival |
| --- | --- |
| CN1CCc2nc3sc(C(=O)c4ccc5c(c4)OCO5)c(N)c3cc2C1 | inactive: 116% |
| CC1(C)Cc2c(c(N3CCOCC3)nc3oc(C(=O)c4ccccc4)c(N)c23)CO1 | inactive: 107% |
| CCOc1ccc(C2C(C(N)=O)=C(C)Nc3nc(SCc4ccccc4)nn32)cc1 (stereo not given) | inactive: 89% |
| COc1ccc(CNC(=O)Nc2ccc3c(c2)N(C)C(=O)c2ccccc2S3)cc1 | inactive: 113% |
| CC(=O)C1=C(c2ccc(C)cc2)N(C(C)=O)n2c(nnc2C2CCCCC2)S1 | inactive: 73% |
| CCCCNC(=O)CSc1nc2ccccc2nc1Cc1ccc(C)cc1 | inactive: 72% |
| COc1ccc(-c2nnc(SCc3cc(=O)c4cc(C)cc(C)c4[nH]3)n2C)cc1 | inactive: 126% |
| COc1cccc(CN2C(=O)c3ccccc3Sc3ccc(C(=O)N(C)Cc4ccccc4)cc32)c1 | inactive: 93% |
| O=C(NCc1ccco1)C12CC3CC(CC(C3)C1)C2 | inactive: 103% |
| COc1cccc2cc(-c3nc(Nc4cccc(C)c4)sc3C)c(=O)oc12 | inactive: 68% |
| O=C(c1cccs1)c1cn(CCOc2ccccc2F)c2ccccc12 | inactive: 75% |
| COc1cccc(CNC(=O)c2ccc3nc(-c4ccc(F)cc4)c(-c4ccc(F)cc4)nc3c2)c1 | inactive: 125% |
| CC(=O)c1cccc(NC(=O)c2nc3ccccc3n(C)c2=O)c1 | inactive: 114% |
| COc1cc(C2c3c(-c4ccccc4O)n[nH]c3C(=O)N2CCO)ccc1OCc1ccccc1 (stereo not given) | inactive: 89% |
| CC(C)c1ccc(S(=O)(=O)c2nnn3c2nc(N2CCN(C)CC2)c2sccc23)cc1 | inactive: 76% |
| CCOC(=O)c1ccccc1NC(=O)c1c2c(nc3ccccc13)C(=O)N(C1CCCCC1)C2 | inactive: 78% |
| CCOc1ccc(CNC(=O)C2CCN(S(=O)(=O)N3CCC(C)CC3)CC2)cc1OC | inactive: 84% |
| CC1=C(C(=O)Nc2cccnc2)C(c2cccc(Br)c2)n2nc(SCc3ccccc3)nc2N1 (stereo not given) | inactive: 60% |
| COc1ccc(C(=O)Nc2nc3nc(C)c(Cc4ccccc4)c(=O)n3[nH]2)cc1OC | inactive: 95% |
| Cc1ccc(CNC(=O)COCc2cc(-c3cccs3)on2)cc1 | inactive: 88% |
| CCCn1c(SCc2nc3ccccc3[nH]2)nc2ccccc21 | inactive: 114% |
| CC(=O)c1cccc(NC(=O)CN2C=NS(=O)(=O)c3ccc(C)cc32)c1 | inactive: 71% |
